The campaign covered roughly 200,000 compounds. About 10 (0.005%) were called active. This list was built around the results that the source calls inconclusive (neither active nor inactive); the mix of calls is not that of the screen. Calls come from the whole dose curve; as a rule, active = well fitted inhibition curve with a large enough effect; inconclusive = small, poorly fitted or top-dose-only effect, or effect the other way, or another doubt; inactive = no such curve, though single readings can be large or run the other way. No potency is given beside an inconclusive call; the fits are too rough.
molecular target: Lysosomal alpha-glucosidase (Homo sapiens) (UniProt P10253); test: qHTS Assay for Inhibitors of Human alpha-Glucosidase as a Potential Chaperone Treatment of Pompe Disease; settings: purified human GAA, 4-MU-alpha-glucoside fluorescence; activity change, negative = inhibition: at 76.9 µM (top of the series) unless noted;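 for activity change, negative = inhibition: plate controls were uninhibited enzyme wells for no effect and no-enzyme background for full effect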
In short: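 Activity normalized between no-enzyme (basal) and enzyme-only wells. Conditions: 4 nM human enzyme, 400 uM fluorogenic substrate, citrate/phosphate pH 5.0 with Tween-20, 20 min room temperature, compounds up to 77 uM.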
Potency is the fitted concentration of half-maximal effect; tags give direction and shape of the fitted curve.

| Compound | activity change, negative = inhibition | Potency |
| --- | --- | --- |
| CCN1CCN(c2ccc(NC(=O)c3cccc(F)c3)cc2Cl)CC1 | inconclusive: 14.6% [activator] | – |
| Cc1ccc(OCC(=O)N/N=C\c2cn(C)c3ccccc23)c([N+](=O)[O-])c1 | – | inconclusive [inhibitor, single point] |
| CN(C)c1cccc(C(=O)OC(C(=O)Nc2ccc([N+](=O)[O-])cc2Br)c2ccccc2)c1 (configuration not stated) | – | inconclusive [inhibitor, full curve, poor fit] |
| CC1=C(C(=O)OC2CCCCC2)C(c2ccc(C)o2)C2=C(CCCC2=O)N1 (configuration not stated) | – | inconclusive [inhibitor, single point] |
| Cc1ccc(-c2c3c(nc4sc(C(N)=O)c(N)c24)CCCC3)o1 | – | inconclusive [inhibitor, single point] |
| Cc1cccc(C=Nc2ccc3c4c(cccc24)CC3)c1O | inactive: 7.14% | – |
| CCCC(=O)C1=C(O)C(C(=O)OC)C(C)(C)CC1=Nc1cccc2ccccc12 (configuration not stated) | inconclusive: -16.1% [inhibitor] | – |
| COC(=O)c1ccc(C(=O)OC)c(N)c1 | – | inconclusive [activator, partial curve] |
| O=C(Nc1cnn(C23CC4CC(CC(C4)C2)C3)c1)c1cnn2cccnc12 | – | inconclusive [inhibitor, single point] |
| CN(c1ccc([N+](=O)[O-])cc1C(=O)Nc1ccccc1)C1CCCCC1 | inactive: -5.28% | – |
| Cc1nnc(SCC(=O)N/N=C/c2ccc(-c3ccc(C)c(Cl)c3)o2)s1 | – | inconclusive [inhibitor, single point] |
| CN1c2ccccc2-c2nc3ccccc3n2C1c1ccncc1 (configuration not stated) | inconclusive: -18% [inhibitor] | – |
| O=C(O)CSCC(=O)Nc1ccc(-c2nc3ccccc3s2)cc1 | – | inconclusive [activator, single point] |
| COc1ccc(NC(=O)C2=Cc3cccc(OC)c3OC2)cc1 | inconclusive: 2.51% [activator] | – |
| Brc1ccc(-c2cn3cccnc3n2)cc1 | – | inconclusive [activator, partial curve] |
| Cc1[nH][nH]c(=O)c1C(c1cc([N+](=O)[O-])ccc1O)c1c(C)[nH][nH]c1=O | – | inconclusive [inhibitor, full curve] |
| CCOC(=O)c1sc2nc(C(C)C)c3c(c2c1N)CCC3 | – | inconclusive [activator, single point] |
| COc1ccccc1-n1cccc1C=O | – | inconclusive [activator, full curve] |
| CSc1nc2ncc3c(n2n1)CC1c2ccccc2CCN1C3=O (configuration not stated) | – | inconclusive [activator, single point] |
| CCCCCNC(=O)c1ccc2c(=O)n(CCOC)c(=O)[nH]c2c1 | – | inconclusive [activator, partial curve] |
| OC(COC(c1ccccc1)c1ccccc1)CN1CCc2ccccc2C1 (configuration not stated) | inactive: -8.7% | – |
| COC(=O)C1=C(N)Oc2cc(C)n(Cc3ccco3)c(=O)c2C1c1cccc(Cl)c1 (configuration not stated) | inactive: -9.52% | – |
| N#C/C(=C/c1ccc(Br)o1)C(N)=O | – | inconclusive [inhibitor, partial curve] |

| Compound | activity change, negative = inhibition | Potency |
| --- | --- | --- |
| COc1ccc(CC(=O)NC(C)c2nnc(SCC(=O)c3ccc(Br)cc3)n2C)cc1 (configuration not stated) | – | inconclusive [inhibitor, partial curve] |
| O=C(c1ccco1)N1CCN(c2ccc([N+](=O)[O-])c(N3CCOCC3)c2)CC1 | inconclusive: 18% [activator] | – |
| Cc1cc(NCCN2CCOCC2)n2c(nc3ccccc32)c1C#N | – | inconclusive [activator, partial curve] |
| COc1cccc(NC(=O)CSc2nc3n[nH]c(C)c3c(=N)n2-c2cccc(OC)c2)c1 | – | inconclusive [inhibitor, single point] |
| CC(=O)Nc1ccc(C(=O)Nc2ccc(S(=O)(=O)N3CCCC3)cc2)cc1 | inconclusive: -19% [inhibitor] | – |
| CN(C(=O)c1coc(=O)c2ccccc12)c1ccc(F)cc1 | – | inconclusive [inhibitor, full curve, poor fit] |
| NC(=O)COC(=O)c1cc(Cl)cc(Cl)c1N | – | inconclusive [activator, partial curve] |
| COc1nc(N)nc(NC23CC4CC(CC(C4)C2)C3)n1 | – | inconclusive [inhibitor, single point] |
| N#Cc1c(-c2ccccc2)nc2n1CCS2 | inconclusive: 12% [activator] | – |
| Nc1c(Cl)cc(Cl)cc1C(=O)OCC(=O)N1CCCC1 | – | inconclusive [activator, partial curve] |
| COc1ccc(S(=O)(=O)N2CCN(C(=O)NC3CCCCC3)CC2)cc1OC | inconclusive: -17.6% [inhibitor] | – |
| CN(C(=O)CSc1nnnn1-c1ccccc1)C1CCCCC1 | – | inconclusive [inhibitor, full curve, poor fit] |
| Nc1cccc2nc3ccccc3cc12 | – | inconclusive [activator, partial curve] |
| CCOC(=O)c1c(NC(=O)/C=C/c2ccc3c(c2)OCO3)sc(C)c1CC | inconclusive: -16.1% [inhibitor] | – |
| COc1ccc(-n2nnnc2SCC(=O)Nc2ccccc2N2CCOCC2)cc1OC | inconclusive: 19.2% [activator] | – |
| Cc1nc2c(sc3nc4c(cc32)COC(C)(C)C4)c(=O)n1CC(=O)NCc1ccco1 | – | inconclusive [inhibitor, single point] |
| CCOc1ccc(NC(=O)CSc2nnc(-c3ccccc3Cl)n2Cc2ccco2)cc1 | – | inconclusive [inhibitor, single point] |
| O=C(O)CCNS(=O)(=O)c1ccc2c(c1)Cc1ccccc1-2 | – | inconclusive [inhibitor, single point] |
| CCC(=O)NCCC(c1ccco1)c1ccccc1OC (configuration not stated) | inconclusive: 17.1% [activator] | – |
| O=[N+]([O-])c1ccc(Oc2ccc(F)cc2Br)c2ccncc12 | – | inconclusive [inhibitor, single point] |
| O=C(C1CCCN(S(=O)(=O)c2cccc3nsnc23)C1)N1CCc2ccccc21 (configuration not stated) | – | inconclusive [inhibitor, partial curve, poor fit] |
| CNc1cc([N+](=O)[O-])ccc1N/C=C/C(=O)c1ccc2c(c1)OCO2 | – | inconclusive [inhibitor, single point] |
| CC(=O)N1N=C(c2cccc(Br)c2)OC12CCCC2 | – | inconclusive [inhibitor, single point] |

| Compound | activity change, negative = inhibition | Potency |
| --- | --- | --- |
| Nc1ccc(C(=O)Nc2ccc3nc(-c4ccncc4)[nH]c3c2)cc1 | inconclusive: 11.4% [activator] | – |
| COC(=O)CNC(c1ccccc1)c1cc(Br)ccc1NC(=O)CNC(=O)OCc1ccccc1 (configuration not stated) | – | inconclusive [inhibitor, partial curve] |
| Cc1ccc(-c2nnc(SCC(=O)N/N=C/c3ccc(C)s3)n2-c2ccc(C)cc2)cc1 | – | inconclusive [inhibitor, single point] |
| CC(NC(=S)NCc1ccc(F)cc1)C12CC3CC(CC(C3)C1)C2 (configuration not stated) | – | inconclusive [inhibitor, single point] |
| CCCS(=O)(=O)N1CCCC(C(=O)NCCc2ccc(Cl)cc2)C1 (configuration not stated) | – | inconclusive [inhibitor, single point] |
| Cc1cccc(N2C(=O)CS/C2=N\NC(=O)c2cccnc2)c1C | inconclusive: 9.05% [activator] | – |
| O=C(NC1CCCCC1)c1cccc(S(=O)(=O)N2CCOCC2)c1 | – | inconclusive [inhibitor, single point] |
| O=C(NC(NC(=S)Nc1c(Cl)cccc1Cl)C(Cl)(Cl)Cl)c1cccc([N+](=O)[O-])c1 (configuration not stated) | – | inconclusive [inhibitor, full curve, poor fit] |
| O=C(c1cncs1)N1CCCC(CNS(=O)(=O)c2cccs2)C1 (configuration not stated) | – | inconclusive [inhibitor, partial curve] |
| CC1=CC(C)(C)N(C(=O)CCl)c2ccccc21 | inconclusive: 16.7% [activator] | – |
| CC(=O)c1ccc(S(=O)(=O)Nc2cccc(-c3ccc4nncn4n3)c2)cc1 | inconclusive: -17.4% [inhibitor] | – |
| Cc1c(O)ccc2c3c(c(=O)oc12)CCC(C)C3 (configuration not stated) | – | inconclusive [activator, partial curve] |
| CCOc1cc(/C=C/c2cc(C(=O)O)c3ccccc3n2)ccc1OC | inactive: 3.14% | – |
| O=S(=O)(NC1CCCCC1Nc1ccc(Cl)cc1)c1ccccc1 (configuration not stated) | – | inconclusive [inhibitor, single point] |
| Cc1ccc(CN(Cc2cccnc2)C(=S)Nc2cccc(Cl)c2C)cc1 | inactive: 6.23% | – |
| O=C(Nc1ccc(Cl)cc1)N1CCN(c2ncccn2)CC1 | – | inconclusive [activator, partial curve] |
| Cc1ccc(-c2cn3cccc(C)c3n2)cc1 | – | inconclusive [inhibitor, partial curve] |
| O=C(c1ccccc1)n1ccc2ccccc21 | inconclusive: -15.6% [inhibitor] | – |
| C=CCOc1ccc(C2OC34CCCCC3C(C#N)(C#N)C2(C#N)C(=N)O4)cc1 (configuration not stated) | – | inconclusive [activator, single point] |
| Cc1cc(C)c(S(=O)(=O)N2CCN=C2c2ccccc2)cc1C | – | inconclusive [inhibitor, single point] |
| Nc1nnnn1CC(=O)N/N=C/c1ccccn1 | – | inconclusive [inhibitor, partial curve] |
